From PubChem BioAssay AID1745853 (National Center for Advancing Translational Sciences (NCATS), 2022)
Values joined by “and” are separate entries in the source; they are usually repeats but may differ in a detail not shown here. Identical values can stand only once. Some of the results follow. These are further read-outs of the screen, such as a control signal, another cell line or another target. No call is given for them.

Key:
Assay in all cases: Primary Screen for Target Class Profiling of Small Molecule Inhibitors of Methyltransferases
[1] = biological target: Glycine N-methyltransferase (Homo sapiens) (UniProt Q14749); details: purified enzyme, MTase-Glo SAH luminescence; measured here: GNMT inhibition; at 40 µM; stronger effect = lower value
In short: (§1)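 Each enzyme was assayed with SAM and its substrate. SAH formation detected by MTase-Glo luminescence; single-point 40 uM screen[…].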

[2] = biological target: Guanidinoacetate N-methyltransferase (Homo sapiens) (UniProt Q14353); details: purified enzyme, MTase-Glo SAH luminescence; measured here: GAMT inhibition; at 40 µM; stronger effect = lower value
In short: as §1

[3] = biological target: Histamine N-methyltransferase (Homo sapiens) (UniProt P50135); details: purified enzyme, MTase-Glo SAH luminescence; measured here: HNMT inhibition; at 40 µM; stronger effect = lower value
In short: as §1

[4] = biological target: Nicotinamide N-methyltransferase (Homo sapiens) (UniProt P40261); details: purified enzyme, MTase-Glo SAH luminescence; measured here: NNMT inhibition; at 40 µM; stronger effect = lower value
In short: as §1

[5] = biological target: Phenylethanolamine N-methyltransferase (Homo sapiens) (UniProt P11086); details: purified enzyme, MTase-Glo SAH luminescence; measured here: PNMT inhibition; at 40 µM; stronger effect = lower value
In short: as §1
On the % scale 0 is the no-effect control and ±100 the full control effect.

SMILES	activity change, negative = inhibition [1]	activity change, negative = inhibition [2]	activity change, negative = inhibition [3]	activity change, negative = inhibition [4]	activity change, negative = inhibition [5]
CCNC(=O)N1CC(C(=O)NCc2cccc(C)c2)CC(c2ccc(F)c(C)c2)C1 (stereo not drawn)	-9.73%	-10.5%	-7.49%	-26.5%	-14.5%
C[C@@H]1CN(C(=O)c2cc(S(N)(=O)=O)ccc2F)CC[C@]1(C)O	-3.39%	-4.65%	-1.1%	-10.7%	-6.16%
CC1(C)CC[C@]2(C(=O)O)CC[C@]3(C)C(=CC[C@@H]4[C@@]5(C)CC[C@H](O)C(C)(C)[C@@H]5CC[C@]43C)[C@@H]2C1		1.45%		-14.7%	2.3%
CN1CCCn2nc(C(=O)N(C)Cc3nc4ccc(Cl)cc4[nH]3)cc2C1	-1.35%	1.18%	-1.06%	-1.46%	2.87%
COc1ccc(CCCN2CCC(COC(c3ccccc3)c3ccccc3)CC2)cc1	5.87%	11%	5.42%	-22%	1.58%
CC(C)C(=O)N1CCC(c2nc(-c3cccnn3)no2)CC1	-2.23%	-4.99%	3.64%	0.996%	0.845%
O=C(O)/C=C/c1ccc2occc2c1O[C@@H]1O[C@H](CO)[C@@H](O)[C@H](O)[C@H]1O	3.72%	8.37%	9.62%	-1.72%	5.74%
CS(=O)(=O)N1CCC2(CC1)CN(C(=O)c1ccc(N)nc1)Cc1ccccc1O2	-5.59%	-3.84%	-7.93%	-11.6%	-4.37%
CC1(C(=O)NC2CCCC2)Cn2cnc(C(=O)NCc3cccc(Cl)c3)c2C(=O)N1C1CC1 (stereo not drawn)	0.696%	0%	7.75%	-5.54%	2.42%
CCC1c2ccc(C)n2CCN1C(=O)Nc1ccc(F)c(Cl)c1 (stereo not drawn)	-0.31%	0%	1.58%	-4.11%	-2.35%
Cc1cc2c(cc3n2CC(C)(C(=O)NC2CCCCCCC2)N(Cc2ccccn2)C3=O)o1 (stereo not drawn)	-2.49%	5.09%	4.83%	-6.61%	0.337%
C[C@]1(OC(=O)/C=C/c2ccc(O)cc2)C[C@@H](O)[C@]2(O)C=CO[C@@H](O[C@@H]3O[C@H](CO)[C@@H](O)[C@H](O)[C@H]3O)C12 (stereo partly drawn)	-1.67%	-4.51%	7.2%	-17.7%	1.81%
CC(C)NC[C@H](O)COc1cccc2ccccc12	-3.5%	3.15%	-14.1%	-9.06%	1.51%
CC1CCCCC1NC(=O)C1(C)Cn2c(cc3sccc32)C(=O)N1Cc1ccco1 (stereo not drawn)	-1.28%	0.443%	0.272%	-0.602%	1.04%
CCC1Oc2ccc(NC(=O)c3ccccc3OC(C)=O)cc2CN(Cc2ccccc2F)C1=O (stereo not drawn)	-6.16%	-6.2%	-6.91%	-6.35%	-7.02%
C[C@H]1O[C@@H](n2cc(F)c(=O)[nH]c2=O)[C@H](O)[C@@H]1O	-3.22%	8.19%	0.45%	1.05%	8.88%
Cc1nc(NCC2(c3ccccc3)CCOCC2)cc(C2CC(O)C2)n1 (stereo not drawn)	-1.34%	-4.05%	-2.17%	-2.24%	-3.13%
Cc1ccc2nc(Nc3ccc4[nH]c(=O)[nH]c4c3)c(-n3nc(C)cc3C)nc2c1	-7.43%	0.39%	2.57%	3.29%	-3.15%
CC(C)(C)c1nc(-c2cccc(NS(=O)(=O)c3c(F)cccc3F)c2F)c(-c2ccnc(N)n2)s1	-7.69%	-0.548%	-2.67%	-20.2%	-8.09%
Cc1[nH]nc2c1C(c1c(F)cccc1F)C(C#N)=C(N)O2 (stereo not drawn)	-8.5%	2.09%	-7.41%	-10.1%	6.29%

SMILES	activity change, negative = inhibition [1]	activity change, negative = inhibition [2]	activity change, negative = inhibition [3]	activity change, negative = inhibition [4]	activity change, negative = inhibition [5]
COc1ccnc(-c2nnc3ccc(Nc4cc(OC)c(OC)c(OC)c4)nn23)c1	-34.7%	-29.7%	-54.4%	-36.4%	-17%
CNCCN1C(=O)CC[C@H]2CN(Cc3cc(C4CCCCC4)no3)CC[C@H]21	-2.22%	-4.3%	-2.99%	-8.97%	-2.79%
O=[N+]([O-])c1nccn1CO[C@@H](CO)[C@H](O)CO	3.85%	8.96%	8.59%	-4.3%	4.49%
CCC(C)NC(=O)c1ccc2c(=O)n(C3CC3)c3nn(CC(=O)NC(C)C)c(=O)n3c2c1 (stereo not drawn)	4.96%	0.419%	5.33%	3.92%	5.39%
CN1C(=O)c2cc(C(=O)NCc3ccccc3F)nn2CC1(C)C(=O)NC1CCCC1 (stereo not drawn)	1.12%	-7.25%	4.8%	-1.34%	-3.12%
Cc1cccc(CNC(=O)CCn2ccc3cc(S(=O)(=O)N4CCCCC4)ccc32)c1	6.24%	0.708%	7.42%	6.55%	3.77%
C=Cc1ccc(Cn2nc3n(CC(C)C)c(=O)c4ccc(C(=O)NC5CCCC5)cc4n3c2=O)cc1	4.58%	1.54%	7.91%	7.33%	7.11%
O=C1CCN(C(=O)c2ccco2)CCCC(C(=O)NCc2ccccc2)CCN1 (stereo not drawn)	3.12%	2.91%	1.89%	4.58%	5.19%
Cc1c(C(=O)Nc2ccc(N3CCC(N4CCOCC4)CC3)c(C#N)c2)cnn1-c1ccc(Cl)cc1	-8.81%	1.29%	-6.41%	-9.34%	-2.32%
CC(=O)N1CCCN(Cc2nnc(C(=O)N3CCC[C@@H]3C(c3ccccc3)c3ccccc3)n2-c2ccccc2)CC1	-8.33%	-1.84%	-3.35%	-29%	8.66%
O=C(c1ccccc1)N1CCC2(CC1)C(=O)NN=C2C1CC1	-4.49%	-8.38%	-3.91%	-11.1%	-9.16%
CC(C)CNC(=O)C1CCCN(c2ccnc3ccnn23)C1 (stereo not drawn)	-0.665%	2.64%	-9.74%	-4.79%	-3.21%
CCOc1ccc(CN2C(=O)c3cc4oc(C)cc4n3CC2(C)C(=O)NC2CCCCCC2)cc1 (stereo not drawn)	-6.65%	0%	-4.39%	-7.51%	-2.65%
CC1CCN(Cc2nnnn2CC(=O)N(C)Cc2ccccn2)CC1	-5.15%	-0.666%	-0.369%	-3.02%	3.44%
COc1cc([C@H]2OC[C@](O)(Cc3ccc(O[C@@H]4O[C@H](CO)[C@@H](O)[C@H](O)[C@H]4O)c(OC)c3)[C@@H]2CO)ccc1O	2.08%	6.95%	11.1%	-4.19%	5.51%
CCCn1c(=O)c2ccc(C(=O)NC3CCCCC3)cc2n2c(=O)n(CC(=O)NCc3ccccc3)nc12	7.91%	0.55%	10.9%	3.63%	6.86%
CCOc1ccc(CN2C(=O)c3ccc(-c4ccco4)n3CC2(C)C(=O)NCCC(C)C)cc1 (stereo not drawn)	-0.202%	0%	7.31%	5.91%	2.93%
COc1cccc(N2C(=O)NC(=NC3CCCCC3)C23CCCN(CC2CCCCC2)C3)c1 (stereo not drawn)	-21.1%	0.368%	-18.3%	-72.2%	-4.77%
OCCN1CCN(CCCN2c3ccccc3C=Cc3ccccc32)CC1	-4.18%	10.5%	4.17%	-4.03%	8.32%
C=C1C[C@]23C[C@H]1[C@@H](O)C[C@H]2[C@@]12C=C[C@H](O)[C@@](C)(C(=O)O1)[C@H]2[C@@H]3C(=O)O	-1.7%	-4.8%	6.01%	-16%	-6.37%

SMILES	activity change, negative = inhibition [1]	activity change, negative = inhibition [2]	activity change, negative = inhibition [3]	activity change, negative = inhibition [4]	activity change, negative = inhibition [5]
Cc1cccc(CN2CCCn3nc(C(=O)NCCc4cccs4)cc3C2=O)c1	-2.88%	0%	5.89%	-2.68%	0.495%
CCCn1c(=O)c2ccc(Cl)cc2n2c(SCc3ccccc3F)nnc12	3.58%	0%	10.3%	2.66%	4.71%
FC(F)(F)c1ccnc(N2CC[C@H](c3nnc(-c4ccncc4)o3)C2)n1	-6.84%	-0.927%	-0.685%	-70.4%	2.6%
COCC(=O)N1CCN(c2nc3ncccc3o2)CC1	-5.49%	-7.99%	-4.54%	-15.5%	-7.83%
CCC(C)NC(=O)c1ccc2c(=O)n(C)c3nn(CC(=O)Nc4ccc(C)c(F)c4)c(=O)n3c2c1 (stereo not drawn)	0.831%	7.27%	1.17%	0.749%	3.81%
COc1cccc2c1NC(c1cccc3ccccc13)C1CC=CC21 (stereo not drawn)	-12.6%	-8.4%	-9.96%	-18.3%	-8.79%
COc1cccc(Nc2c(C(N)=O)cnc3c(C)cc(S(=O)(=O)c4cccc(C(=O)N(C)C)c4)cc23)c1	-21%	-11.9%	-13.1%	-41.6%	-10.7%
Cn1c(CN2CCN3C(=O)NC[C@H]3C2)nc2ccccc21	-4.95%	-5.57%	-1.81%	-12.3%	-19.9%
Cc1ccc(CSc2nnc3n(Cc4ccccc4)c(=O)c4ccc(C(=O)NC(C)C)cc4n23)cc1	3.42%	0.357%	9.9%	3.76%	4.36%
CSc1ccccc1C(=O)N1CCN(C(C)=O)CC(O)C1 (stereo not drawn)	-3.93%	-10%	-2.82%	-14.3%	-8.65%
CCOCCCNC(=O)c1cc2n(n1)CC(C)(C(=O)NCc1ccc(C)cc1)N(C)C2=O (stereo not drawn)	6.02%	0%	5.1%	6.23%	4.6%
C[C@]12CCC(=O)C=C1[C@@H](O)C[C@@H]1[C@@H]2[C@@H](O)C[C@@]2(C)[C@H]1CC[C@]2(O)C(=O)CO	0.627%	7.64%	11.5%	-4.13%	6.49%
CCOc1ccc(CCNC(=O)c2cc3n(n2)CC(C)(C(=O)NCc2ccc(C)cc2)N(C)C3=O)cc1 (stereo not drawn)	4.05%	0%	1.12%	6.8%	3.75%
CN(CC(=O)Nc1ccc(F)cc1F)S(=O)(=O)c1ccc2[nH]c3c(c2c1)CCCC3	-4.54%	0.662%	-1.38%	-4.51%	-0.498%
CC(=O)CCCCn1c(=O)c2c(ncn2C)n(C)c1=O	-2.34% and -3.84%	-2.95% and 3.46%	11.9% and -0.293%	-8.12% and -7.17%	5.22% and 2.85%
C=Cc1ccc(CSc2nnc3n(CCC)c(=O)c4cc(F)ccc4n23)cc1	-4.76%	4.55%	10.7%	-7.87%	4.37%
CC(C)OCCCn1c(=O)c2cc(Cl)ccc2n2c(SCc3ccccc3)nnc12	-4.21%	0%	3.8%	-6.97%	3.05%
CCOc1ccccc1CN1C(=O)c2cc3sccc3n2CC1(C)C(=O)NC1CCCCC1 (stereo not drawn)	4.84%	0%	5.84%	8.49%	4.17%
COc1cccc(CCC(=O)N[C@@H]2CN(c3ncccn3)C[C@H]2CO)c1	-1.24%	-4.01%	-0.081%	-17.2%	11%
